How the values were obtained:
Test in all cases: ERK1/2 phosphorylation
Type in all cases: cell-based
hCTR L297A = target: T1, hCTR L297A (Homo sapiens, UniProt P30988, L297A); settings: pERK, CV1-FlpIn cells, three-parameter logistic fit, mean ± S.E.M.
T1 construct: c-Myc (N); expressed in transfected cells
Method: (§1) Cells (2.5 × 10^4 cells/well) were seeded into 96-well culture plates and incubated overnight. […] Data were normalized to the maximal response elicited by 10% FBS determined at 6 min.
(§2) Data were corrected for radioligand occupancy using the Cheng-Prusoff equation in Prism; as such data are reported as pKi. Emax and EC50 were estimated from concentration-response curves using with a 3-parameter logistic equation in Prism (v7). These values are a composite of functional affinity, efficacy and stimulus response coupling. […] Significance was accepted at P < 0.05.

hCTR F285A = target: T2, hCTR F285A (Homo sapiens, UniProt P30988, F285A); settings: pERK, CV1-FlpIn cells, three-parameter logistic fit, mean ± S.E.M.
T2 construct: expressed in transfected cells
T2 sequence (P30988 25-474 F285A): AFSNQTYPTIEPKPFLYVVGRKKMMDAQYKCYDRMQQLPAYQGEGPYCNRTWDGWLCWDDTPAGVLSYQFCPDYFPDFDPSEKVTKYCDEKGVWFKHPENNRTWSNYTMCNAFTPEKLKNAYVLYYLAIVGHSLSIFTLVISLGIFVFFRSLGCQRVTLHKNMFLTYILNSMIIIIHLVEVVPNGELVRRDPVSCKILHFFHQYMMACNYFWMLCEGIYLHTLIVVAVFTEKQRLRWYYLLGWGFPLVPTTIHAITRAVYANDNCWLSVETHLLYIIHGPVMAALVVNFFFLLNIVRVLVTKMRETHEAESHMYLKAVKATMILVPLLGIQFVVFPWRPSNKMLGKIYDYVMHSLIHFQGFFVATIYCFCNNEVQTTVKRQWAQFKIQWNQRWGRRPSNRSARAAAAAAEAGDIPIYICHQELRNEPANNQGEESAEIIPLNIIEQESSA
Method: as §1, §2

hCTR WT = target: T3, hCTR WT (Homo sapiens, UniProt P30988); settings: pERK, CV1-FlpIn cells, three-parameter logistic fit, mean ± S.E.M.
T3 construct: expressed in transfected cells
T3 sequence (P30988 25-474): as the sequence (P30988 25-474 F285A) above, with A261F counted along it
Method: as §1, §2

hCTR R281A = target: T4, hCTR R281A (Homo sapiens, UniProt P30988, R281A); settings: pERK, CV1-FlpIn cells, three-parameter logistic fit, mean ± S.E.M.
T4 construct: expressed in transfected cells
T4 sequence (P30988 25-474 R281A): as the sequence (P30988 25-474 F285A) above, with R257A, A261F counted along it
Method: as §1, §2

hCTR I279A = target: T5, hCTR I279A (Homo sapiens, UniProt P30988, I279A); settings: pERK, CV1-FlpIn cells, three-parameter logistic fit, mean ± S.E.M.
T5 construct: expressed in transfected cells
T5 sequence (P30988 25-474 I279A): as the sequence (P30988 25-474 F285A) above, with I255A, A261F counted along it
Method: as §1, §2

hCTR M376A = target: T6, hCTR M376A (Homo sapiens, UniProt P30988, M376A); settings: pERK, CV1-FlpIn cells, three-parameter logistic fit, mean ± S.E.M.
T6 construct: c-Myc (N); expressed in transfected cells
T6 sequence (P30988 25-474 M376A): as the sequence (P30988 25-474 F285A) above, with A261F, M352A counted along it
Method: as §1, §2

hCTR R362A = target: T7, hCTR R362A (Homo sapiens, UniProt P30988, R362A); settings: pERK, CV1-FlpIn cells, three-parameter logistic fit, mean ± S.E.M.
T7 construct: expressed in transfected cells
T7 sequence (P30988 25-474 R362A): as the sequence (P30988 25-474 F285A) above, with A261F, R338A counted along it
Method: as §1, §2

hCTR P363A = target: T8, hCTR P363A (Homo sapiens, UniProt P30988, P363A); settings: pERK, CV1-FlpIn cells, three-parameter logistic fit, mean ± S.E.M.
T8 construct: expressed in transfected cells
T8 sequence (P30988 25-474 P363A): as the sequence (P30988 25-474 F285A) above, with A261F, P339A counted along it
Method: as §1, §2

hCTR T280A = target: T9, hCTR T280A (Homo sapiens, UniProt P30988, T280A); settings: pERK, CV1-FlpIn cells, three-parameter logistic fit, mean ± S.E.M.
T9 construct: expressed in transfected cells
T9 sequence (P30988 25-474 T280A): as the sequence (P30988 25-474 F285A) above, with T256A, A261F counted along it
Method: as §1, §2

hCTR E294A = target: T10, hCTR E294A (Homo sapiens, UniProt P30988, E294A)
T10 construct: c-Myc (N); expressed in transfected cells
T10 sequence (P30988 25-474 E294A): as the sequence (P30988 25-474 F285A) above, with A261F, E270A counted along it
Method: as §1, §2

hCTR F359A = target: T11, hCTR F359A (Homo sapiens, UniProt P30988, F359A)
T11 construct: expressed in transfected cells
T11 sequence (P30988 25-474 F359A): as the sequence (P30988 25-474 F285A) above, with A261F, F335A counted along it
Method: as §1, §2

T1 sequence (P30988 25-474 L297A): as the sequence (P30988 25-474 F285A) above, with A261F, L273A counted along it

CC(C)C[C@H](NC(=O)[C@H](CC(N)=O)NC(=O)[C@H](CC(N)=O)NC(=O)[C@H](CO)NC(=O)[C@H](CO)NC(=O)[C@H](CCCNC(=N)N)NC(=O)[C@@H](NC(=O)[C@H](CC(C)C)NC(=O)[C@H](Cc1ccccc1)NC(=O)[C@H](CC(N)=O)NC(=O)[C@H](C)NC(=O)[C@H](CC(C)C)NC(=O)[C@H](CCCNC(=N)N)NC(=O)[C@H](CCC(N)=O)NC(=O)[C@@H](NC(=O)[C@H](C)NC(=O)[C@@H]1CSSC[C@H](NC(=O)[C@@H](N)CCCCN)C(=O)N[C@@H](CC(N)=O)C(=O)N[C@@H]([C@@H](C)O)C(=O)N[C@@H](C)C(=O)N[C@@H]([C@@H](C)O)C(=O)N1)[C@@H](C)O)C(C)C)C(=O)NCC(=O)N1CCC[C@H]1C(=O)N[C@H](C(=O)N[C@@H](CC(C)C)C(=O)N1CCC[C@H]1C(=O)N1CCC[C@H]1C(=O)N[C@H](C(=O)N[C@@H](CC(N)=O)C(=O)N[C@H](C(=O)NCC(=O)N[C@@H](CO)C(=O)N[C@@H](CC(N)=O)C(=O)N[C@H](C(=O)N[C@@H](Cc1ccc(O)cc1)C(N)=O)[C@@H](C)O)C(C)C)[C@@H](C)O)C(C)C [rAmy]
EC50 (hCTR L297A): 28.2 nM
EC50 (hCTR F285A): 21.9 nM
EC50 (hCTR WT): 64.6 nM
EC50 (hCTR R281A): 69.2 nM
EC50 (hCTR I279A): 18.2 nM
EC50 (hCTR M376A): 67.6 nM
EC50 (hCTR R362A): 115 nM
EC50 (hCTR P363A): 30.9 nM
EC50 (hCTR T280A): 26.9 nM
EC50 (hCTR E294A): 37.2 nM
EC50 (hCTR F359A): 60.3 nM

Reference: article PMC5908784, “Extracellular loops 2 and 3 of the calcitonin receptor selectively modify agonist binding and efficacy” (Biochemical Pharmacology, 2018)
